# Hit rate of the full screen: of about 340,000 compounds, fewer than 10 were called active. Inconclusive results, whose numbers are uncertain, are shown with a selection of clear calls. Calls come from the whole dose curve; as a rule, active = well fitted inhibition curve with a large enough effect in the main read-out, with a control signal flat (not every such curve was filed as active); inconclusive = small, poorly fitted or top-dose-only effect, or effect the other way, or a change in a side signal; inactive = no such curve, though single readings can be large or run the other way. Where the call is inconclusive, the potency comes from a doubtful curve fit. “Side channel” marks fits to a control or component signal instead of the main read-out.
# Target: Tumor susceptibility gene 101 protein (Homo sapiens) (UniProt Q99816)
# Chain of UniProt Q99816 (Q99816 whole entry, looked up): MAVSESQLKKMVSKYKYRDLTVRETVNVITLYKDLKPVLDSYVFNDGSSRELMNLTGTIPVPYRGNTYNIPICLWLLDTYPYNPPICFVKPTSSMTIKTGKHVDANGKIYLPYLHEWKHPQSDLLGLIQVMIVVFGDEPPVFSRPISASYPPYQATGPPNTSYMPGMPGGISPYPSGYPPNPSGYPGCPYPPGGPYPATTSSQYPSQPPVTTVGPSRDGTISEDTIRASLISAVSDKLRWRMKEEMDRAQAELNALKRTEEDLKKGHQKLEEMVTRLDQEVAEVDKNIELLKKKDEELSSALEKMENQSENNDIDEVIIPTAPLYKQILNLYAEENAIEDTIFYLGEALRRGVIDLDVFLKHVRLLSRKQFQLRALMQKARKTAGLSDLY
# Experiment: qHTS Assay for Iinhibitors of HIV-1 Budding by Blocking the Interaction of PTAP/TSG101
# Conditions: Fluorescence polarization, FITC-PTAP peptide / Tsg101 binding; series mostly up to 115 µM
# Procedure, shortened: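 Compounds were pin-transferred onto Tsg101 binding domain (10 uM final) in HEPES pH 7.5 buffer, then FITC-PTAP peptide was added at 50 nM final. After 20 min at RT, polarization reported peptide displacement across a qHTS concentration series.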
# Potency is the fitted concentration of half-maximal effect; tags give direction and shape of the fitted curve or compound fluorescence and quenching.
row,Structure (SMILES),Potency
1,O=C1C2=C(SCCS2)C(=O)N1CCCO,"inconclusive: 89.1 µM [fluorescent, side channel, partial curve, poor fit]"
2,Cn1c(=O)cc2c3c(c(N4CCCCC4)ccc31)C(=O)c1ccccc1-2,"inconclusive: 22.4 µM [falling, full curve, poor fit]"
3,CN1/C(=C/C=C(C#N)C#N)C(C)(C)c2ccccc21,"inconclusive: 56.2 µM [fluorescent, side channel, partial curve, poor fit]"
4,O=C(COc1cc2oc(=O)c3c(c2cc1Cl)CCC3)NCCCn1ccnc1,inactive
5,C[C@H](NC(=O)[C@@H]1CSC2c3ccccc3C(=O)N21)C(=O)NC1CCCC1 (stereo not given in full),"inconclusive: 56.2 µM [fluorescent, partial curve, poor fit]"
6,O=C1OC(c2cccs2)=N/C1=C/c1ccc(-c2cccc(C(=O)O)c2)o1,"inconclusive: 50.1 µM [fluorescent, side channel, partial curve, poor fit]"
7,CCOC(=O)/C(C#N)=C\C=C1C=CN(C)C=C1,"inconclusive: 56.2 µM [fluorescent, side channel, partial curve, poor fit]"
8,O=C(C1CCCN(CCCc2ccccc2)C1)N1CCCCCC1 (stereo not given),"inconclusive: 89.1 µM [quencher, side channel, single point]"
9,COc1ccc(-c2ncccc2OC(=O)C23CC4CC(CC(C4)C2)C3)cc1,inactive
10,Cc1ccc(-c2nc(C=Nc3ccc(O)cc3)c(O)o2)cc1,"inconclusive: 50.1 µM [falling, partial curve, poor fit]"
11,Cc1nn(-c2ccccc2)cc1/C=N/O,inactive
12,O=C(O)c1ccccc1CSc1nnc2c(n1)[nH]c1ccccc12,"inconclusive: 50.1 µM [fluorescent, side channel, partial curve, poor fit]"
13,C=CCN1C(=O)/C(=C/c2ccc(-c3ccc(F)cc3)o2)SC1=S,"inconclusive: 63.1 µM [fluorescent, side channel, partial curve, poor fit]"
14,N=C1/C(=C/c2coc3ccccc3c2=O)C(=O)N=C2SC(c3ccco3)=NN12,"inconclusive: 31.6 µM [fluorescent, side channel, full curve]"
15,COc1cccc(C2C3CN(C)CC=C3C(C#N)=C(N)C2(C#N)C#N)c1OC (stereo not given),"inconclusive: 56.2 µM [fluorescent, side channel, partial curve, poor fit]"
16,Cc1csc(NC(=O)c2sc3nc(-c4cccs4)ccc3c2N)n1,"inconclusive: 11.2 µM [fluorescent, side channel, full curve, poor fit]"
17,COc1ccc(N/C=C\C(=O)c2ccc(Br)cc2)cc1OC,"inconclusive: 56.2 µM [fluorescent, side channel, partial curve, poor fit]"
18,COc1ccc(N(C(=O)c2snc(C(N)=O)c2N)C(C(=O)NC2CCCC2)c2ccc3ncccc3c2)cc1 (stereo not given),"inconclusive: 44.7 µM [falling, partial curve, poor fit]"

row,Structure (SMILES),Potency
1,O=C(CCN1C(=O)/C(=C\c2cccs2)SC1=S)Nc1nccs1,"inconclusive: 70.8 µM [fluorescent, side channel, partial curve, poor fit]"
2,CCCN1CNC(=S)N(c2ccccc2OC)C1,inactive
3,COc1ccc(Nc2nc3ccccc3nc2NS(=O)(=O)c2cccs2)c(OC)c1,"inconclusive: 56.2 µM [fluorescent, side channel, partial curve, poor fit]"
4,Cc1ccc(NC(=O)/C(C#N)=C/c2ccc(C)s2)c(C)c1,"inconclusive: 89.1 µM [fluorescent, side channel, partial curve, poor fit]"
5,CSc1ccc(/C=N/NC(=O)CN2CCN(Cc3ccc(Cl)cc3)CC2)cc1,"inconclusive: 100 µM [fluorescent, side channel, partial curve, poor fit]"
6,Nc1c(C(=O)Nc2ccc(S(=O)(=O)N3CCCC3)cc2)sc2nc3ccc(OC(F)(F)F)cc3cc12,"inconclusive: 56.2 µM [fluorescent, side channel, partial curve, poor fit]"
7,COc1ccccc1N1C(C)=CC(=C(C#N)c2nc3ccccc3s2)C=C1C,"inconclusive: 50.1 µM [fluorescent, side channel, partial curve, poor fit]"
8,C=CCn1c(=O)/c(=C/c2ccc(C)o2)s/c1=C(/C#N)C(=O)c1ccccc1,"inconclusive: 50.1 µM [fluorescent, side channel, partial curve, poor fit]"
9,COc1cccc(/C(O)=C/c2nc3ccc(C(=O)NCCc4ccc(Cl)cc4)cc3[nH]c2=O)c1,"inconclusive: 50.1 µM [fluorescent, side channel, partial curve, poor fit]"
10,O=c1[nH]c2ccccc2nc1/C=C(\O)c1cccs1,"inconclusive: 39.8 µM [fluorescent, side channel, partial curve, poor fit]"
11,O=c1oc2ccc3ccccc3c2cc1-c1nnc(-c2cccs2)o1,"inconclusive: 50.1 µM [fluorescent, side channel, partial curve, poor fit]"
12,O=C(Nc1ncc(Cc2ccc(C(F)(F)F)cc2)s1)c1ccc(-c2cccc([N+](=O)[O-])c2)o1,inactive
13,CCS(=O)(=O)N1CCC(C(=O)NCCc2ccc(OC)c(OC)c2)CC1,inactive
14,S=C(NCCc1ccccn1)Nc1ccc(Cl)c(Cl)c1,inactive
15,CCCNc1c(F)c(F)c2c(C)c3ccccc3nc2c1F,"inconclusive: 25.1 µM [fluorescent, full curve]"
16,O=C(CSc1nc2ccccc2c(=O)n1NC(=O)Cc1ccccc1)NCc1ccccc1,inactive
17,COc1cc(/C=c2\sc3nc(=O)c(-c4ccccc4)nn3c2=O)ccc1OCCC(C)C,"inconclusive: 50.1 µM [fluorescent, side channel, partial curve, poor fit]"
